# In PubChem BioAssay AID743279 (National Center for Advancing Translational Sciences (NCATS), 2014):
# Hit rate of the full screen: of about 360,000 compounds, about 17,000 (4.7%) were called active. The inconclusive results got no clear call from the source; some entries with a clear call stand among them for comparison. Rule as the data show it: active = activity change below about -50%; inconclusive = mostly about -30% to -49%; inactive = weaker than that.
# Test: qHTS for Inhibitors of Inflammasome Signaling: IL-1-beta AlphaLISA Primary Screen
# Details: THP-1 LPS/ATP IL-1B secretion, 16 h; at 57.5 µM, active compounds read low
# Method in brief: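 THP-1 cells pretreated 1 hr with compounds (up to 57.5 uM final), then stimulated with LPS (250 ng/mL final) plus ATP (1.25 mM final); secreted IL-1B measured by AlphaLISA after 16 hr, decreased signal indicating inhibition.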
# % is scaled to controls: 0 for no effect and ±100 for the full control effect.
row,Compound,activity change
1,CN1CCN(C(=O)c2cccc(S(=O)(=O)N3CCCC3)c2)CC1,inactive: -0.115%
2,S=C(NCCc1ccccc1)N1CCn2cccc2C1c1cccnc1 (stereo not given),active: -66%
3,COc1ccc(C(=S)N2CCN(c3ccccc3C)CC2)cc1,inconclusive: -31.7%
4,Cc1ccccc1SCC(=O)Nc1cc(S(=O)(=O)N2CCOCC2)ccc1N1CCOCC1,inactive: -29.5%
5,CCOc1cc(/C=C2\N=C(C)OC2=O)cc(Cl)c1OCC(=O)OC,inactive: -10.3%
6,Cn1c(=O)c(C(=O)CCl)c(N)n(Cc2ccccc2)c1=O,active: -95.1%
7,O=C(NCC1CCCO1)/C(=C/c1cn(-c2ccccc2)nc1-c1cccnc1)NC(=O)c1ccccc1 (stereo not given),inconclusive: -35.5%
8,Cc1ccccc1-c1cc2nc(NCc3ccccc3F)n(C)c(=O)c2s1,inconclusive: -32.2%
9,Cc1ccc(N/N=C2\CCS(=O)(=O)c3sccc32)cc1,inconclusive: -32.7%
10,O=C(COc1ccc(Cl)cc1)NCc1cn2cc(Cl)ccc2n1,inactive: -7.74%
11,COc1ccc(NC(=O)C2CCCN2S(=O)(=O)c2ccc3c(c2)CC(C)N3C(C)=O)cc1OC (stereo not given),inactive: 22.3%
12,CCn1c(SCC(=O)Nc2ccc(C)cc2)nc2nc3c(cc2c1=O)CCCC3,inconclusive: -37.9%
13,Cc1nnc2ccc(N3CCCCC3)nn12,inactive: 24.4%
14,COc1ccc(-c2cn[nH]c2-c2ccc(OCc3ccc([N+](=O)[O-])cc3)cc2O)cc1,active: -55.6%
15,O=c1ccn([C@@H]2O[C@H](CNCc3cccc4c3sc3ccccc34)[C@@H](O)[C@H]2O)c(=O)[nH]1,inactive: -17.7%
16,CCc1ccccc1NC(=O)CN(C)Cc1nc(N)nc(Nc2ccccc2C)n1,inactive: 4.63%
17,CCCC[C@@H]1CN=C(N)N1CCc1cccc(F)c1,inconclusive: -40.2%
18,CCN1/C(=C\C(=S)Nc2ccccc2)Sc2ccccc21,active: -97.1%
19,Cc1ccc(C)c(N2CCN(S(=O)(=O)CC34CCC(CC3=O)C4(C)C)CC2)c1 (stereo not given),inactive: 13.9%
20,OC(CN1CCCCC1)CN1CCCCC1,inconclusive: -35.1%
21,Cc1cccc(C(=O)NC2CCN(CC(=O)Nc3cccc(Cl)c3)CC2)c1,inconclusive: -32.4%
22,O=C(NNC(=O)c1sccc1-n1cccc1)c1ccccc1,inactive: 7.41%
23,Cc1c(NC(=O)CSc2ccc(Cl)cc2)cccc1-c1nc2ncccc2o1,inconclusive: -36.2%
24,Cc1nc2ncccn2c1-c1csc(Nc2ccc(N(C)C)cc2)n1,inconclusive: -49%
25,Cc1ccccc1C(=O)Nc1ccc(N2CCN(C(=O)c3ccco3)CC2)cc1,inconclusive: -34.2%
